{"source": "paper PMC4336329", "about": "(PLoS ONE, 2015)", "note": "About 14,000 (4.5%) of roughly 310,000 compounds showed an effect of 50% or more. Effects have a minus sign here. Some of the results follow.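 Further: peak tail current of the secondary pulse compared with the same well before compound.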"}
{"target": "human ether-à-go-go-related gene (hERG) potassium channel (human, UniProt Q12809)", "sequence (Q12809 whole entry, looked up)": "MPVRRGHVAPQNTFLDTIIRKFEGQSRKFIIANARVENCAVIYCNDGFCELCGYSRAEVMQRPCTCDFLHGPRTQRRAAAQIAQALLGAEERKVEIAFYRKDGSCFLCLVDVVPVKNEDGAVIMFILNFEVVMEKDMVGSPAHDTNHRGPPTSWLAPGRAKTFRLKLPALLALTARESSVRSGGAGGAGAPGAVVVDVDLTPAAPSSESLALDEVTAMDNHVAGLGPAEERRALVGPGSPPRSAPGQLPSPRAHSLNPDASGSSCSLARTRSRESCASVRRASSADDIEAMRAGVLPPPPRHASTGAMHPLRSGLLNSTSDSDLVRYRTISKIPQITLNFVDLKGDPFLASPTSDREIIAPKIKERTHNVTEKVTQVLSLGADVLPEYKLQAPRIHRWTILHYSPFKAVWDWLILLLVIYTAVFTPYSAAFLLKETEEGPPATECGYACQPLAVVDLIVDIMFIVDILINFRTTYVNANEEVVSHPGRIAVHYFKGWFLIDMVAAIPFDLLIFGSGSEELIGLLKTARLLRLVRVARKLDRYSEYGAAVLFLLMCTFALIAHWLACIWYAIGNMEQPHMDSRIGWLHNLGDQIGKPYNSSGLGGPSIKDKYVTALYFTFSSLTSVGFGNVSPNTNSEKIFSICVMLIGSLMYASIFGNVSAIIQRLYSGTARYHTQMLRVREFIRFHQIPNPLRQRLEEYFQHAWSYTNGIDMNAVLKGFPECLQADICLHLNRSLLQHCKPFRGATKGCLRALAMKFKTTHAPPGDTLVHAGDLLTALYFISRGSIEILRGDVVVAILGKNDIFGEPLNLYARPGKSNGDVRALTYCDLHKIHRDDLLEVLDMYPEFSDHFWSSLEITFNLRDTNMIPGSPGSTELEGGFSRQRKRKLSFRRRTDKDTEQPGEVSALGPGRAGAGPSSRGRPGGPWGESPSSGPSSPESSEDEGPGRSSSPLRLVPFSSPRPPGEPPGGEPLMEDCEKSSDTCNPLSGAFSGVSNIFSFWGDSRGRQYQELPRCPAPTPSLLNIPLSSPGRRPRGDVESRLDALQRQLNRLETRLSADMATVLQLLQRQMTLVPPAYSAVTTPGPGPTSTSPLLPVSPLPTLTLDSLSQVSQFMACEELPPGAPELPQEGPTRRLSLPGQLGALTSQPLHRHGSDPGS", "experiment": "primary screen, population patch clamp on CHO cells stably expressing hERG", "units": {"hERG current change (%, negative = inhibition) at 10uM": "%"}}
{"smiles": "Cc1nccn1CCCN1C(=O)OC2(CCCCC2)C1(C)O", "note": "(centres unmarked)", "hERG current change (%, negative = inhibition) at 10uM": 18.9}
{"smiles": "COC(=O)c1ccccc1NC(=O)c1ccc(Cn2cc(Cl)cn2)o1", "hERG current change (%, negative = inhibition) at 10uM": 4.21}
{"smiles": "O=C(NC(=S)Nc1ccccc1C(=O)O)c1ccc(-c2ccc(Br)cc2)o1", "hERG current change (%, negative = inhibition) at 10uM": 28.3}
{"smiles": "CCOC(=O)c1cnc(SCC(=O)Nc2cc(OC)cc(OC)c2)nc1N", "hERG current change (%, negative = inhibition) at 10uM": -5.5}
{"smiles": "O=C(CCCO)NC1Cc2ccccc2C1", "hERG current change (%, negative = inhibition) at 10uM": 2.04}
{"smiles": "Cc1ccsc1C(=O)OCC(=O)Nc1sccc1C(N)=O", "hERG current change (%, negative = inhibition) at 10uM": -6.35}
{"smiles": "CS(=O)(=O)N(Cc1ccccc1F)c1ccccc1", "hERG current change (%, negative = inhibition) at 10uM": 0.694}
{"smiles": "Cc1ccc(OCC(=O)NC(=S)Nc2ccccn2)c(Br)c1", "hERG current change (%, negative = inhibition) at 10uM": 24.3}
{"smiles": "CCN(CC)CCCNC(=O)c1cn(CCOC)c(=O)c2c1c1ccccc1n2C", "hERG current change (%, negative = inhibition) at 10uM": -0.445}
{"smiles": "COc1cccc(CNC(=O)C(C)n2ccc3cc(S(=O)(=O)N4CCCCCC4)ccc32)c1", "note": "(centres unmarked)", "hERG current change (%, negative = inhibition) at 10uM": 5.13}
{"smiles": "Cn1c(SCC(=O)Nc2cc([N+](=O)[O-])ccc2F)nnc1C(F)(F)F", "hERG current change (%, negative = inhibition) at 10uM": -14.3}
{"smiles": "COc1ccc(N2CCN(S(=O)(=O)CCNC(=O)C3CC3)CC2)cc1", "hERG current change (%, negative = inhibition) at 10uM": -4.28}
{"smiles": "COc1cccc(NC(=O)CC(c2ccc(OC(C)C)cc2)c2ccccc2OC)c1", "note": "(centres unmarked)", "hERG current change (%, negative = inhibition) at 10uM": 1.26}
{"smiles": "COCCNC(=S)N/N=C(\\C)c1ccc(-n2ccnc2)cc1", "hERG current change (%, negative = inhibition) at 10uM": -66.2}
{"smiles": "CCOC(=O)Oc1ccc(/C=C2\\N=C(C)OC2=O)cc1", "hERG current change (%, negative = inhibition) at 10uM": 25.6}
{"smiles": "COC(=O)c1sc(NC(=O)CSc2nnc(Cn3nnc4ccccc43)n2C)nc1C", "hERG current change (%, negative = inhibition) at 10uM": 23.9}
{"smiles": "COc1ccc(NC2c3ccccc3C(=O)N2c2cccnc2)cc1", "note": "(centres unmarked)", "hERG current change (%, negative = inhibition) at 10uM": -2.82}
{"smiles": "Cc1ccc(-c2nnc(N3CCC(C)CC3)c3ccccc23)cc1C", "hERG current change (%, negative = inhibition) at 10uM": 14}
{"smiles": "CCOC(=O)/C(C)=N/NC(=O)c1cccc([N+](=O)[O-])c1", "hERG current change (%, negative = inhibition) at 10uM": 7.04}
{"smiles": "CCn1nnc2cc(C(=O)NCC(c3ccccc3OC)N(C)C)ccc21", "note": "(centres unmarked)", "hERG current change (%, negative = inhibition) at 10uM": 12}
{"smiles": "Cc1ccc(-c2nnc(Nc3ccccc3)o2)cc1", "hERG current change (%, negative = inhibition) at 10uM": -0.386}
{"smiles": "CCc1ccc(OCC(=O)NNC(=O)c2c(CC)noc2C)cc1", "hERG current change (%, negative = inhibition) at 10uM": 10.8}
{"smiles": "COc1ccc2oc(C(=O)OCC(=O)NC3CC3)c(C)c2c1", "hERG current change (%, negative = inhibition) at 10uM": 11}
{"smiles": "CNC(=O)c1ccsc1NC(=O)CCS(=O)(=O)c1ccccc1", "hERG current change (%, negative = inhibition) at 10uM": 2.74}
{"smiles": "Cc1cc(C)n2nc(SCc3nnc(-c4ccc(F)cc4)o3)nc2n1", "hERG current change (%, negative = inhibition) at 10uM": -43}
{"smiles": "O=C(N/N=C/c1cccc([N+](=O)[O-])c1)c1cccc2cc[nH]c12", "hERG current change (%, negative = inhibition) at 10uM": 15.9}
{"smiles": "COC(=O)c1cc(CSC(=N)N)ccc1OCCC(C)C.Cl", "hERG current change (%, negative = inhibition) at 10uM": -3.46}
{"smiles": "Cc1cc(C)nc(NS(=O)(=O)c2ccc(NC(=O)CCN3C(=O)c4ccccc4C3=O)cc2)n1", "hERG current change (%, negative = inhibition) at 10uM": 3.74}
{"smiles": "O=C(Cc1cccs1)Nc1nnc(-c2ccncc2)s1", "hERG current change (%, negative = inhibition) at 10uM": -21.2}
{"smiles": "Cc1cccc(N2C(=O)C3C4C=CC(CC4)C3C2=O)c1", "note": "(centres unmarked)", "hERG current change (%, negative = inhibition) at 10uM": 9.21}
{"smiles": "Cc1ccc(-n2c(C)cc(/C=N/NC(=O)c3ccc(CN4CCOCC4)cc3)c2C)cc1", "hERG current change (%, negative = inhibition) at 10uM": -9.84}
{"smiles": "COc1cc(C(=O)NC2Cc3ccccc3C2)ccc1OC1CCN(C(C)=O)CC1", "hERG current change (%, negative = inhibition) at 10uM": 4.22}
{"smiles": "CCCOc1ccc(C(C)=O)cc1Cc1c(O)[nH]c(=S)[nH]c1=O", "hERG current change (%, negative = inhibition) at 10uM": 17}
{"smiles": "COc1ccc2nc(NC3=NCCC3)sc2c1", "hERG current change (%, negative = inhibition) at 10uM": -9.66}
{"smiles": "COCCN(C(=O)c1csnn1)C(C(=O)NC1CCCC1)c1ccccc1F", "note": "(centres unmarked)", "hERG current change (%, negative = inhibition) at 10uM": 6.33}
{"smiles": "CCN(c1ccccc1)S(=O)(=O)c1cccc(C(=O)NCC(c2ccco2)N2CCCC2)c1", "note": "(centres unmarked)", "hERG current change (%, negative = inhibition) at 10uM": -59.3}
{"smiles": "COc1cc2cc(CN(CCc3cccc(C)c3)C(=S)NCCCN3CCOCC3)c(=O)[nH]c2cc1OC", "hERG current change (%, negative = inhibition) at 10uM": -66.9}
{"smiles": "Cc1ccc(-n2cc(CN3CCNC(=O)CC3)c(-c3ccc(F)cc3)n2)cc1", "hERG current change (%, negative = inhibition) at 10uM": -35.4}
{"smiles": "O=C(C1CCC1)N1CCc2cc(S(=O)(=O)NCc3ccccn3)ccc21", "hERG current change (%, negative = inhibition) at 10uM": 2.49}
{"smiles": "Nc1nnnn1/N=C/c1ccccc1OCc1ccccc1", "hERG current change (%, negative = inhibition) at 10uM": 19}
{"smiles": "CCN(CC)S(=O)(=O)c1cc(C(=O)Nc2ccccc2[N+](=O)[O-])ccc1Cl", "hERG current change (%, negative = inhibition) at 10uM": -14.4}
{"smiles": "O=C1c2ccccc2C(=O)N1CC(O)CNc1ccc(Br)cc1", "note": "(centres unmarked)", "hERG current change (%, negative = inhibition) at 10uM": -11.4}
{"smiles": "NS(=O)(=O)c1ccc(NC(=S)N2CCC(O)CC2)cc1", "hERG current change (%, negative = inhibition) at 10uM": 33.2}
{"smiles": "COc1cc(CNc2ccc3[nH]c(=O)[nH]c3c2)cc(Br)c1OCC(=O)NC(C)(C)C", "hERG current change (%, negative = inhibition) at 10uM": 3.64}
{"smiles": "CCc1ccc(N(CC(=O)NC(C)(C)CC)C(=O)CCC(=O)Nc2nccs2)cc1", "hERG current change (%, negative = inhibition) at 10uM": -8.86}
{"smiles": "COc1cccc(C(=O)N2CCN(C(=O)COc3ccc4ccccc4c3)CC2)c1", "hERG current change (%, negative = inhibition) at 10uM": -47.4}
{"smiles": "COc1ccc(O)c(CN2CCN(C/C=C/c3ccccc3)CC2)c1", "hERG current change (%, negative = inhibition) at 10uM": -51.9}
{"smiles": "COCCOc1cc(NC(=O)CS(=O)(=O)CC(=O)N(C)C)c(Cl)cc1Cl", "hERG current change (%, negative = inhibition) at 10uM": 3.42}
{"smiles": "Cc1cc(/C=N/NC(N)=S)c(C)n1-c1ccc(Br)cc1", "hERG current change (%, negative = inhibition) at 10uM": 5.38}
{"smiles": "O=c1cc(CN2CCOCC2)c2c(ccc3ccccc32)o1", "hERG current change (%, negative = inhibition) at 10uM": -14.2}
{"smiles": "O=C(c1ccc(Cl)nc1)c1cccs1", "hERG current change (%, negative = inhibition) at 10uM": 17.8}
{"smiles": "COc1ccc(C(C(=O)NC(C)(C)C)N(CCc2ccc(OC)c(OC)c2)C(=O)CCC(=O)Nc2cc(C)on2)cc1", "note": "(centres unmarked)", "hERG current change (%, negative = inhibition) at 10uM": 4.64}
{"smiles": "CCNc1nc(Cl)nc(NC2CCCCC2)n1", "hERG current change (%, negative = inhibition) at 10uM": -2.08}
{"smiles": "Cc1ccc(S(=O)(=O)N(C)C)cc1NC(=O)c1cccnc1Oc1ccccc1", "hERG current change (%, negative = inhibition) at 10uM": 8.62}
{"smiles": "CC1=NN(C(=O)c2ccc(Br)cc2)C(O)(C(F)(F)OC(F)(F)F)C1", "note": "(centres unmarked)", "hERG current change (%, negative = inhibition) at 10uM": 10}
{"smiles": "CN(CC(=O)Nc1ccccc1Cl)C(=O)c1ccc(N2CCCCCC2)c([N+](=O)[O-])c1", "hERG current change (%, negative = inhibition) at 10uM": -20.2}
